Viability of KB3-1 and Nalm-6 cells after 48 h of drug alone (CellTiter-Glo), 11 doses over about 4.5 log units. % of DMSO wells, lower = more cell loss; AC50 from the fitted curve, lower = more potent. No active / inactive call. Nalm-6 was screened in two runs. AC50 is listed only for well-fitted inhibitory curves. KB3-1 is a HeLa-derived carcinoma line, Nalm-6 a B-cell precursor leukaemia line.
How the values were obtained:
Nalm-6 [1] = test: log AC50 of viability decrease (48 h) (log10 M); higher = less potent
Description: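 Eleven-dose screen of the NCATS MIPE 3 library on cells without co-treatment; CellTiter-Glo after 48 h. AC50 from the curve fit; only inhibitory curves of the better fit classes are listed.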

KB3-1 = test: viability (% of DMSO control); higher = more viable cells
Description: (§1)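 Eleven-dose screen of the NCATS MIPE 3 library on cells without co-treatment; CellTiter-Glo after 48 h, as % of DMSO wells.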

Nalm-6 [2] = test: as above
Description: as §1

Compound	log AC50 of viability decrease (Nalm-6 [1]; run: 1)	log AC50 of viability decrease (Nalm-6 [1]; run: 2)	viability (KB3-1; 0.00078 µM) [%]	viability (KB3-1; 0.00234 µM) [%]	viability (KB3-1; 0.00702 µM) [%]	viability (KB3-1; 0.0211 µM) [%]	viability (KB3-1; 0.0632 µM) [%]	viability (KB3-1; 0.19 µM) [%]	viability (KB3-1; 0.569 µM) [%]	viability (KB3-1; 1.71 µM) [%]	viability (KB3-1; 5.12 µM) [%]	viability (KB3-1; 15.4 µM) [%]	viability (KB3-1; 46.1 µM) [%]	viability (Nalm-6 [2]; run: 1, 0.00078 µM) [%]	viability (Nalm-6 [2]; run: 1, 0.00234 µM) [%]	viability (Nalm-6 [2]; run: 1, 0.00702 µM) [%]	viability (Nalm-6 [2]; run: 1, 0.0211 µM) [%]	viability (Nalm-6 [2]; run: 1, 0.0632 µM) [%]	viability (Nalm-6 [2]; run: 1, 0.19 µM) [%]	viability (Nalm-6 [2]; run: 1, 0.569 µM) [%]	viability (Nalm-6 [2]; run: 1, 1.71 µM) [%]	viability (Nalm-6 [2]; run: 1, 5.12 µM) [%]	viability (Nalm-6 [2]; run: 1, 15.4 µM) [%]	viability (Nalm-6 [2]; run: 1, 46.1 µM) [%]	viability (Nalm-6 [2]; run: 2, 0.00078 µM) [%]	viability (Nalm-6 [2]; run: 2, 0.00234 µM) [%]	viability (Nalm-6 [2]; run: 2, 0.00702 µM) [%]	viability (Nalm-6 [2]; run: 2, 0.0211 µM) [%]	viability (Nalm-6 [2]; run: 2, 0.0632 µM) [%]	viability (Nalm-6 [2]; run: 2, 0.19 µM) [%]	viability (Nalm-6 [2]; run: 2, 0.569 µM) [%]	viability (Nalm-6 [2]; run: 2, 1.71 µM) [%]	viability (Nalm-6 [2]; run: 2, 5.12 µM) [%]	viability (Nalm-6 [2]; run: 2, 15.4 µM) [%]	viability (Nalm-6 [2]; run: 2, 46.1 µM) [%]
N#Cc1ccc(COC[C@H]2O[C@@H](n3c(NCc4ccc(Cl)c(Cl)c4)nc4c(N)ncnc43)[C@H](O)[C@@H]2O)cc1	-4.78	-4.63	101	102	102	103	102	98.9	105	101	99.8	95.4	14	106	111	102	105	111	98.2	92.8	81.7	67.7	66	1.16	106	107	107	103	106	107	105	109	88.8	86.9	2.16
O=C(Nc1ccccc1-c1cn2c(CN3CCNCC3)csc2n1)c1cnc2ccccc2n1 [SRT1720]		-4.58	102	105	106	110	109	108	106	112	111	98.4	2	116	114	121	117	110	114	114	108	109	106	0.857	110	109	109	103	107	110	105	103	103	96.3	0.568
C[S+]([O-])c1ccc(-c2nc(-c3ccc(F)cc3)c(-c3ccncc3)[nH]2)cc1 (stereo not given)	-4.68		102	99.2	96.4	99.6	102	93.5	102	101	104	91.9	85.1	121	116	119	124	110	115	111	115	103	103	78.2	113	111	107	108	102	112	115	115	106	109	94.7
C/C(=C\C(=O)Nc1ccccc1C(=O)O)c1ccc2ccccc2c1 [BIBR 1532]	-5.03	-4.78	107	107	106	104	105	106	108	105	107	97.4	68.1	117	122	122	125	124	121	126	125	115	43.1	29.7	111	111	105	107	112	110	113	110	104	60.3	6.26
C[C@]\12CC[C@H](O)CC1=C/C[C@@H]3[C@@H]2CC[C@@]\4(C)[C@H]3C\C=C4C5=CN=CC=C5 [Abiraterone]	-4.63	-5.73	102	105	107	107	114	111	104	103	101	98.5	84.9	105	118	113	123	120	124	116	118	109	95.3	4.95	107	103	104	106	99.1	107	83.3	56.6	14.9	5.94	0.608
CC(C)(C)C(=O)Oc1ccc2c(c1)nc(NC(=O)c1cccc([N+](=O)[O-])c1)n2CCCO	-4.63		103	100	98.4	95.5	101	104	94.1	99.5	99.5	98.6	94.4	106	104	101	93.7	102	104	97.5	91.5	88.2	86.6	29.5	98.9	102	101	96.1	90.1	94.9	86.3	94.5	89	85.7	15.4
COc1cc2ncnc(Nc3ccc(F)c(Cl)c3)c2cc1OCCCN1CCOCC1 [Gefitinib]	-4.58		104	104	103	102	101	105	100	99.8	96.4	98.4	29.9	131	132	123	129	120	111	112	109	103	104	5.97	104	101	102	103	107	102	104	95.4	98.2	98.2	6.4
Cc1c[nH]c(-c2cnc(NCCNc3ccc(C#N)cn3)nc2-c2ccc(Cl)cc2Cl)n1	-5.83	-6.03	99	101	102	98.9	105	109	111	107	102	98.3	14.5	98.7	104	115	106	126	124	106	49.3	13.7	12.6	1.71	108	108	108	111	116	108	87.5	23	3.58	3.32	2.15
N#Cc1ccc(NC(=O)Nc2ccccc2Br)c2nn[nH]c12	-4.63	-4.58	108	111	102	105	108	110	80.5	105	104	104	76.3	117	113	114	110	117	119	117	113	108	101	44.6	104	109	97.7	108	110	107	108	102	97.3	79.7	19.7
CN1C(=O)C(=C/2N(C(=O)N(C3CC3)C(=O)C2=C1/NC4=CC=C(I)C=C4F)C5=CC=CC(=C5)NC(C)=O)\C [Trametinib]	-4.63		95.7	95.4	91.3	98.6	94.1	86.8	87.8	86	88.5	88	37	105	97.9	98.5	96.5	95.3	98	99.4	85.9	85.9	79.2	1.57	89.1	93.2	87.5	99.7	94.9	98.2	94.5	98.8	90.3	88.6	1.55
C=C1/C(=C\C=C2/CCC[C@]3(C)[C@@H]([C@H](C)/C=C/[C@H](C)C(C)C)CC[C@@H]23)C[C@@H](O)C[C@@H]1O [Doxercalciferol]	-4.68	-4.68	103	104	105	110	109	107	116	115	108	110	101	107	101	103	128	110	117	116	108	104	84.2	-1.59	95.7	101	97.5	106	102	97.4	102	102	100	74.8	-0.912

— the supplement of paper PMC4996465
